# Test results as given in the BET-seq Pho4 binding data (Le et al. 2018).
# This is one part of the list. These are noisy estimates, calculated here from bound and input reads.
# Biological target: T1, Pho4 (S. cerevisiae) (UniProt P07270)
# T1 sequence: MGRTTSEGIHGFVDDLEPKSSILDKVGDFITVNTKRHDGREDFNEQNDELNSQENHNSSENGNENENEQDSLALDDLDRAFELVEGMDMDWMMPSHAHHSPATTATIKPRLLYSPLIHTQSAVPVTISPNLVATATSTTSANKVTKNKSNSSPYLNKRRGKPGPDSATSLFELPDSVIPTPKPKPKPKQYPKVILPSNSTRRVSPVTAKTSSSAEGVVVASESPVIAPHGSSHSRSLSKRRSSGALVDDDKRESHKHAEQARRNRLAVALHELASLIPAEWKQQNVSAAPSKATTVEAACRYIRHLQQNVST
# Assay: relative binding free energy (BET-seq); higher = weaker binding
# Details: reference: library average
row,Sequence,relative binding free energy
1,TGTGGCACGTGCTTGG,-0.21 kcal/mol
2,GTTGTCACGTGTAGTT,0.13 kcal/mol
3,CAAGTCACGTGGTTTA,0.09 kcal/mol
4,ACAGTCACGTGTTTTA,0.1 kcal/mol
5,CTTGTCACGTGAGTCT,0.31 kcal/mol
6,ATTTACACGTGGTAAG,0.1 kcal/mol
7,GTTCTCACGTGTTGTC,0.2 kcal/mol
8,GGCTTCACGTGTGGGC,0.34 kcal/mol
9,GGGGGCACGTGGGTAG,-0.15 kcal/mol
10,CAGGTCACGTGGTGGC,0.16 kcal/mol
11,GTGCACACGTGTAAGG,0.17 kcal/mol
12,AGGACCACGTGGAGGT,-0.04 kcal/mol
13,GGTAACACGTGAGTGA,-0.01 kcal/mol
14,AGTGACACGTGGATTT,0.05 kcal/mol
15,TGGGGCACGTGGAATG,0.03 kcal/mol
16,GTTGTCACGTGGTCAA,0.02 kcal/mol
17,AAATGCACGTGCGGTT,-0.13 kcal/mol
18,TGAAGCACGTGTTGGG,0.01 kcal/mol
19,GGTGACACGTGTGTTG,0.02 kcal/mol
20,GTCCGCACGTGTTTGG,0.03 kcal/mol
21,AAGGGCACGTGGGAAA,-0.06 kcal/mol
22,AATTTCACGTGTTATA,0.19 kcal/mol
23,TAGGGCACGTGCTGAG,-0.05 kcal/mol

row,Sequence,relative binding free energy
1,AGATACACGTGCTGTG,-0.01 kcal/mol
2,AGAAGCACGTGTTGTC,0.09 kcal/mol
3,GTGGGCACGTGGTGAA,-0.04 kcal/mol
4,AGTGTCACGTGTGGAA,0.1 kcal/mol
5,AACATCACGTGAGGTG,0.36 kcal/mol
6,GTATGCACGTGTGCTG,0.04 kcal/mol
7,ACAGGCACGTGATGTG,-0.06 kcal/mol
8,TTGTTCACGTGTGTTC,0.22 kcal/mol
9,AAAGTCACGTGTTCGT,0.01 kcal/mol
10,CGGGGCACGTGAGTGG,0.03 kcal/mol
11,CGTGGCACGTGCATGG,-0.16 kcal/mol
12,GCAGGCACGTGTCGTG,0.04 kcal/mol
13,GGAGGCACGTGTATCG,-0.05 kcal/mol
14,AGGAGCACGTGATGTG,0.07 kcal/mol
15,TTAGCCACGTGTTGTG,-0.09 kcal/mol
16,AGTGTCACGTGACTAG,0.24 kcal/mol
17,TGTAACACGTGAGTAT,0.29 kcal/mol
18,TGGGTCACGTGGTTAA,0.1 kcal/mol
19,TGATACACGTGTATTG,-0.04 kcal/mol
20,GGGAACACGTGAAGGT,0.46 kcal/mol
21,TGTTACACGTGTAAAA,0.24 kcal/mol
22,GACAGCACGTGGGTGG,-0.19 kcal/mol
23,GGGAGCACGTGCGTGG,-0.07 kcal/mol

row,Sequence,relative binding free energy
1,ACAGGCACGTGGGAGG,-0.21 kcal/mol
2,AGAGTCACGTGTAAAG,0.27 kcal/mol
3,TAATGCACGTGGGGGT,-0.19 kcal/mol
4,ACAGTCACGTGGGGCG,-0.13 kcal/mol
5,TGGCGCACGTGAGTAG,0 kcal/mol
6,TCGAACACGTGGGTTG,-0.15 kcal/mol
7,ATTGACACGTGGTAGA,0.04 kcal/mol
8,GAGGACACGTGTTTTA,0.2 kcal/mol
9,ATTTTCACGTGTTCCG,0.31 kcal/mol
10,AGTTTCACGTGTCAGT,0.28 kcal/mol
11,GTGTTCACGTGTGAGA,0.38 kcal/mol
12,ATAAGCACGTGGCTGT,-0.14 kcal/mol
13,CTATGCACGTGTTAGG,0.01 kcal/mol
14,AGGGTCACGTGGGTCT,0.07 kcal/mol
15,GTTGTCACGTGATTTA,0.35 kcal/mol
16,AAAAGCACGTGTTAGG,-0.01 kcal/mol
17,ATATGCACGTGTGTGA,-0.06 kcal/mol
18,AGTAACACGTGATTTT,0.11 kcal/mol
19,TGAGGCACGTGACGAG,-0.1 kcal/mol
20,TGTAGCACGTGCTGGC,-0.23 kcal/mol
21,ATGGGCACGTGACTAG,-0.08 kcal/mol
22,GGTTCCACGTGTAATG,0.21 kcal/mol
23,GTATTCACGTGGGCGC,0.27 kcal/mol

row,Sequence,relative binding free energy
1,GGCGGCACGTGGCAAG,-0.14 kcal/mol
2,ATGTTCACGTGTGGGT,0.23 kcal/mol
3,ACGGACACGTGTTTGT,0 kcal/mol
4,AGCAGCACGTGTGAGT,0.07 kcal/mol
5,GATTACACGTGGAGTG,0.1 kcal/mol
6,CGGTTCACGTGAAGTA,0.37 kcal/mol
7,TTTCGCACGTGTTGTG,-0.06 kcal/mol
8,GTATACACGTGGTATT,0.04 kcal/mol
9,ATTTCCACGTGGAGGG,0 kcal/mol
10,AGTGACACGTGAGCTT,0.19 kcal/mol
11,GGTACCACGTGGTTGA,-0.15 kcal/mol
12,AGTCTCACGTGTGCGT,0.1 kcal/mol
13,GTTTGCACGTGGCACT,0.14 kcal/mol
14,TATGACACGTGGAGGG,-0.01 kcal/mol
15,GTGAGCACGTGGTGGT,-0.08 kcal/mol
16,CTTGGCACGTGATGAG,0.02 kcal/mol
17,GGAGGCACGTGTCGGC,-0.13 kcal/mol
18,TTTATCACGTGGGTAT,0.05 kcal/mol
19,GTTGTCACGTGATATA,0.19 kcal/mol
20,TATTACACGTGGAGTT,0.11 kcal/mol
21,TGTAGCACGTGATTAT,0.09 kcal/mol
22,TAAATCACGTGGGGTA,-0.05 kcal/mol
23,TTTTTCACGTGGCAGA,0.26 kcal/mol

row,Sequence,relative binding free energy
1,TGCGACACGTGTGGGG,0.15 kcal/mol
2,TTTGTCACGTGTGACT,0.28 kcal/mol
3,ATGAGCACGTGTGGTC,-0.06 kcal/mol
4,ATGTTCACGTGAAGTA,0.21 kcal/mol
5,TTGACCACGTGTATGT,-0.04 kcal/mol
6,ACTTTCACGTGGGGGA,0.13 kcal/mol
7,GTTCTCACGTGGGAAG,0.3 kcal/mol
8,GTGCGCACGTGCGGGG,-0.16 kcal/mol
9,GTGTCCACGTGTTGGT,0.02 kcal/mol
10,AGGGTCACGTGGTTGA,-0.02 kcal/mol
11,AGGGGCACGTGCCGGA,-0.37 kcal/mol
12,TGAGACACGTGGGGGG,-0.19 kcal/mol
13,ACAAGCACGTGGGGTT,-0.07 kcal/mol
14,TTGATCACGTGAAGGG,0.37 kcal/mol
15,GTAGTCACGTGCAGGC,0.2 kcal/mol
16,TTTGTCACGTGTGATA,0.24 kcal/mol
17,CTGGACACGTGTTGGA,0.17 kcal/mol
18,TATATCACGTGTCGGG,0.07 kcal/mol
19,CTGGTCACGTGTTGGT,0.15 kcal/mol
20,GGATTCACGTGGTATT,0.22 kcal/mol
21,AGTTTCACGTGCGCGT,0.26 kcal/mol
22,CTTGTCACGTGGGTGT,-0.1 kcal/mol
23,TATGACACGTGTGGCT,-0.02 kcal/mol
